The values below come from the supplement of paper PMC4604168 (melanoma cell lines).

Some of the results follow. Most values come without repeats; read them as rough.
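Further: cells treated in 1,536-well plates, then fixed and DAPI-stained, with nuclei counted from automated high-throughput microscope images.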

This test deals with COLO792. Description: cell count relative to DMSO control; melanoma cells; higher = more viable cells. Particulars: library dose: standard library concentration; 72 h.
Compound `Nc1ccn([C@@H]2O[C@H](CO)[C@@H](O)C2(F)F)c(=O)n1` [gemcitabine] + O=C(O)C(=O)Nc1sc2c(c1C(=O)O)CCNC2 [TCS401] (first compound 0.002 µM, partner dose 8.33333 µM) yielded a cell count of 70.9%.

The compound `CC(=O)O[C@@]12CO[C@@H]1C[C@H](O)[C@@]1(C)C(=O)[C@H](O)C3=C(C)[C@@H](OC(=O)[C@H](O)[C@@H](NC(=O)OC(C)(C)C)c4ccccc4)C[C@@](O)([C@@H](OC(=O)c4ccccc4)[C@H]21)C3(C)C` [Docetaxel] + C[C@]1(c2nc3c(C(N)=O)cccc3[nH]2)CCCN1 [Veliparib] (first compound 0.0005 µM, partner dose 7 µM) showed a cell count of 14.8%.

In turn, `CC(=O)c1c(C)c2cnc(Nc3ccc(N4CCNCC4)cn3)nc2n(C2CCCC2)c1=O` [palbociclib] + N#Cc1c(O)c2c(-c3ccc(-c4ccccc4O)cc3)csc2[nH]c1=O [A769662] (first compound 0.2 µM, partner dose 10 µM) gave a cell count of 45.9%.

The compound `Nc1ccn([C@@H]2O[C@H](CO)[C@@H](O)C2(F)F)c(=O)n1` [gemcitabine] + C=CCNC1=C2C[C@@H](C)C[C@H](OC)[C@H](O)[C@@H](C)/C=C(\C)[C@H](OC(N)=O)[C@@H](OC)/C=C\C=C(/C)C(=O)NC(=CC1=O)C2=O [Tanespimycin] (first compound 0.002 µM, partner dose 0.01 µM) had a cell count of 68%.

On to `CC(=O)c1c(C)c2cnc(Nc3ccc(N4CCNCC4)cn3)nc2n(C2CCCC2)c1=O` [palbociclib] + O=C(Nc1cccc(Cl)c1)Nc1ncc(CCNc2ncnc3ccsc23)s1 [SNS314] (first compound 0.2 µM, partner dose 0.004 µM), for which the cell count was found to be 48.7%.

Turning to `CC(=O)O[C@@]12CO[C@@H]1C[C@H](O)[C@@]1(C)C(=O)[C@H](O)C3=C(C)[C@@H](OC(=O)[C@H](O)[C@@H](NC(=O)OC(C)(C)C)c4ccccc4)C[C@@](O)([C@@H](OC(=O)c4ccccc4)[C@H]21)C3(C)C` [Docetaxel] + c1cc(-c2cnn3cc(-c4ccc(OCCN5CCCCC5)cc4)cnc23)ccn1 [Dorsomorphin] (first compound 0.0005 µM, partner dose 2 µM), the cell count stood at 26.9%.

The compound `Nc1ncn([C@H]2C[C@H](O)[C@@H](CO)O2)c(=O)n1` [decitabine] + COC(=O)c1sccc1S(=O)(=O)Nc1ccc(Nc2ccccc2)cc1OC [GSK0660] (first compound 0.5 µM, partner dose 5 µM) had a cell count of 87.5%.

`CO[C@H]1C[C@@H]2CC[C@@H](C)[C@@](O)(O2)C(=O)C(=O)N2CCCC[C@H]2C(=O)O[C@H]([C@H](C)C[C@@H]2CC[C@@H](OCCO)[C@H](OC)C2)CC(=O)[C@H](C)/C=C(\C)[C@@H](O)[C@@H](OC)C(=O)[C@H](C)C[C@H](C)/C=C/C=C/C=C/1C` [everolimus] + Clc1ccc(Nc2nnc(Cc3ccncc3)c3ccccc23)cc1 [vatalanib] (first compound 0.1 µM, partner dose 10 µM) displayed a cell count of 33.9%.

The compound `Nc1ccn([C@@H]2O[C@H](CO)[C@@H](O)C2(F)F)c(=O)n1` [gemcitabine] + OCc1c[nH]c2ccccc12 [Indole-3-carbinol] (first compound 0.002 µM, partner dose 4 µM) displayed a cell count of 77.7%.

The compound `Nc1ncn([C@H]2C[C@H](O)[C@@H](CO)O2)c(=O)n1` [decitabine] + O=C(Nc1ccccc1)c1cc([N+](=O)[O-])ccc1Cl [GW9662] (first compound 0.5 µM, partner dose 10 µM) displayed a cell count of 89.4%.

In the case of `Nc1ccn([C@@H]2O[C@H](CO)[C@@H](O)C2(F)F)c(=O)n1` [gemcitabine] + NC(=O)Nc1cc(-c2cccc(F)c2)sc1C(=O)N[C@H]1CCCNC1 [AZD7762] (first compound 0.002 µM, partner dose 0.1 µM), the cell count was 8.57%.

For the compound `Nc1nc(F)nc2c1ncn2[C@@H]1O[C@H](CO)[C@@H](O)[C@@H]1O` [fludarabine] + O=c1cc(-c2cccc3c2Sc2ccccc2S3)oc(N2CCOCC2)c1 [KU55933] (first compound 1 µM, partner dose 5 µM), the cell count was 78.7%.

Regarding `CC(=O)O[C@@]12CO[C@@H]1C[C@H](O)[C@@]1(C)C(=O)[C@H](O)C3=C(C)[C@@H](OC(=O)[C@H](O)[C@@H](NC(=O)OC(C)(C)C)c4ccccc4)C[C@@](O)([C@@H](OC(=O)c4ccccc4)[C@H]21)C3(C)C` [Docetaxel] + CO[C@H]1C[C@@H]2CC[C@@H](C)[C@@](O)(O2)C(=O)C(=O)N2CCCC[C@H]2C(=O)O[C@H]([C@H](C)C[C@@H]2CC[C@@H](OCCO)[C@H](OC)C2)CC(=O)[C@H](C)/C=C(\C)[C@@H](O)[C@@H](OC)C(=O)[C@H](C)C[C@H](C)/C=C/C=C/C=C/1C [everolimus] (first compound 0.0005 µM, partner dose 0.1 µM), the cell count is 15.1%.

In turn, `CC(=O)O[C@@]12CO[C@@H]1C[C@H](O)[C@@]1(C)C(=O)[C@H](O)C3=C(C)[C@@H](OC(=O)[C@H](O)[C@@H](NC(=O)OC(C)(C)C)c4ccccc4)C[C@@](O)([C@@H](OC(=O)c4ccccc4)[C@H]21)C3(C)C` [Docetaxel] + O=C(CCCCCCC(=O)Nc1ccccc1)NO [vorinostat] (first compound 0.0005 µM, partner dose 0.4 µM) gave a cell count of 15%.

With `Nc1ccn([C@@H]2O[C@H](CO)[C@@H](O)C2(F)F)c(=O)n1` [gemcitabine] + c1cc(-c2cnn3cc(-c4ccc(OCCN5CCCCC5)cc4)cnc23)ccn1 [Dorsomorphin] (first compound 0.002 µM, partner dose 2 µM), the cell count is 64.9%.
